This note sets out measurements from PubChem BioAssay (NCI).

The structures appear in SMILES notation.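 Each compound was tested at five concentrations against cells in 96-well plates for 48 hours. GI50 marks 50% less growth. The concentration for full growth arrest is given as TGI.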

The experiment deals with NCI-H322M lung. In words: NCI tumour cell line growth inhibition, 48 h.
On to `O=C(CSc1nnc(-c2ccc(Cl)cc2)n1-c1ccccc1)Nc1cccc(F)c1`, for which the GI50 was 3.57 µM and the TGI was more than 100 µM.
Turning to `COc1cc(/C=C/C(=O)c2cc(OC)c(OC)c(OC)c2)ccc1OCc1ccc(F)cc1`, the GI50 was 2.69 µM and the TGI worked out at 32 µM.
On to `O=C(NNc1nc2cc(F)c(F)cc2n2c(CN3CC4CNCC4C3)ccc12)c1cnccn1` (stereo unspecified), for which the GI50 is 0.829 µM and the TGI was 13.6 µM.
